According to PubChem BioAssay AID1468 (National Center for Advancing Translational Sciences (NCATS), 2008):
In all, about 280,000 compounds went through this assay and about 1,100 (0.39%) were called active. This list was built around the results that the source calls inconclusive (neither active nor inactive); the mix of calls is not that of the screen. Calls follow the shape of the dose curve; as a rule, active = well fitted inhibition curve with a large enough effect; inconclusive = small, poorly fitted or top-dose-only effect, or effect the other way; inactive = flat fitted curve, though single readings scatter. A potency beside an inconclusive call is a rough fit, not a confirmed value.

Molecular target: Microtubule-associated protein tau (Homo sapiens) (UniProt P10636)
Sequence of UniProt P10636 (P10636 whole entry, looked up): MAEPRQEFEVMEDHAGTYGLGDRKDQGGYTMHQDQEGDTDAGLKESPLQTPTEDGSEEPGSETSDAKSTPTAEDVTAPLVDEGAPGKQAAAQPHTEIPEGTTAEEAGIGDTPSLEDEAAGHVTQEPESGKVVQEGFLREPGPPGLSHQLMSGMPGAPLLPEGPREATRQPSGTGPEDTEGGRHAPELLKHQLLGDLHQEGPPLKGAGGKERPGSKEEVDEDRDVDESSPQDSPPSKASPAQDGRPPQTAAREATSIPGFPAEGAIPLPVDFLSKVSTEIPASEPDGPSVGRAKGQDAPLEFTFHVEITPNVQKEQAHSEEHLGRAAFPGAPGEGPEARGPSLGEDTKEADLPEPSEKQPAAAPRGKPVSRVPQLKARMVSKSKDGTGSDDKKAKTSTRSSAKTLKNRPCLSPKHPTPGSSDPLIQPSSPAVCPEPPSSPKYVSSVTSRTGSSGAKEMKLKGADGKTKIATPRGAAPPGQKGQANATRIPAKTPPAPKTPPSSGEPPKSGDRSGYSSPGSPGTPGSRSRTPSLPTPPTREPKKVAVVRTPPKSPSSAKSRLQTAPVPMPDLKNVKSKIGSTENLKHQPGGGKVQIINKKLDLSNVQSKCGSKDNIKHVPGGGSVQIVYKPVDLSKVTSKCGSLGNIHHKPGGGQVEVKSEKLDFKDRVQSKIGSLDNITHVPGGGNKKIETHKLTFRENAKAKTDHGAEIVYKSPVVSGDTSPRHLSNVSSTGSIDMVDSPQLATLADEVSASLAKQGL
Test: qHTS for Inhibitors of Tau Fibril Formation, Fluorescence Polarization; also: nearly all actives have a fitted effect of over 55% in size
Conditions: K18 P301L tau heparin fibrillization, Alexa594 FP, 6 h; series mostly up to 57.7 µM
Method in brief: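 Compound effects on tau fibrillization are measured by Alexa 594 fluorescence polarization (ex 555, em 632 nm). K18 P301L tau is used at 15 uM with 0.24 uM labeled tracer, and 20 uM heparin induces aggregation over 6 hr at 37 C.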
Potency is read from the fitted curve at half-maximal effect; tags tell the direction and shape of the fitted curve.

Potency, inactive:
Cc1c2cnn(CC(=O)N3CCCCC3)c(=O)c2c(C)n1Cc1ccc(Cl)cc1
COc1cc(OC)c(C2C=C(c3ccc(C)cc3)Nc3c(C(=O)Nc4ccccc4)cnn32)cc1OC (configuration not stated)
COc1ccc(CCC(=O)NCCc2csc(-c3cccc(F)c3)n2)cc1
O=S1(=O)CC=C(CSC(=S)NC2CCS(=O)(=O)C2)C1 (configuration not stated)
Cc1ccc(N2CC(NC(=O)C3CCCC3)CC2=O)cc1 (configuration not stated)
CC(C)CC(NC(=O)C1CCC(C)CC1)C(=O)OCC(=O)c1ccc(Cl)cc1 (configuration not stated)
Cc1nc2ccc(NC(=S)N3CCOCC3)cc2nc1C
CC1CCN(S(=O)(=O)c2cccc(C(=O)N(C)C3(C)CCS(=O)(=O)C3)c2)CC1 (configuration not stated)
CC1(C)Cc2ccccc2C(NNC(=O)c2ccccc2)=N1
Cc1ccc(C)c(NC(=O)CN(Cc2ccccc2)S(=O)(=O)c2ccc3nc(C)sc3c2)c1
c1ccc(N2CCN(c3ncnc4c3nc3n4CCCCC3)CC2)cc1

Potency, inconclusive:
O=C(NCCc1ccc(Cl)cc1)c1ccc2c(c1)N(Cc1ccc(F)cc1Cl)C(=O)CS2 15.8 µM [inhibitor, partial curve]
Cc1ccccc1CSCCNC(=O)Nc1ccccc1 35.5 µM [inhibitor, single point]
Cc1cccc(NC(=O)/C=C/c2ccc([N+](=O)[O-])s2)c1 3.55 µM [inhibitor, full curve]
Cc1ccc(C(C)C)c(OCC(=O)Nc2c(C(=O)c3ccc(F)cc3)oc3ccccc23)c1 44.7 µM [inhibitor, single point]
O=c1[nH]c2cc(C(F)(F)F)ccc2n1-c1cc(C(F)(F)F)ccc1O 25.1 µM [inhibitor, single point]
COc1ccc(N(C(=O)c2ccccc2C)S(=O)(=O)c2ccc3c(c2)n(C)c(=O)n3C)cc1 3.16 µM [inhibitor, partial curve, poor fit]
CCCCCn1c(=O)[nH]c2cc(C(=O)NCc3ccc4c(c3)OCO4)ccc2c1=O 6.31 µM [inhibitor, partial curve]
Cc1cc(N2CCN(C)CC2)nc2ccc(NC(=O)Nc3ccccc3Cl)cc12 1.26 µM [activator, partial curve, poor fit]
O=C(/C=C/c1ccco1)N(Cc1cccc(Cl)c1)C1CCS(=O)(=O)C1 (configuration not stated) 15.8 µM [inhibitor, partial curve]
Cc1ccc(S(=O)(=O)N2CCCc3cc(NC(=O)c4ccc(C(F)(F)F)cc4)ccc32)cc1 22.4 µM [inhibitor, single point]
Cc1ccc(-c2ccc(/C=C3/NC(=O)NC3=O)o2)cc1[N+](=O)[O-] 6.31 µM [activator, partial curve]
COc1ccc(NC(=O)CCCN2C(=O)C(c3ccccc3)Oc3cccnc32)cc1OC (configuration not stated) 14.1 µM [activator, single point]
COc1cc(-c2nnc(SCC(=O)N(C)C3CCCCC3)o2)cc(OC)c1OC 28.2 µM [inhibitor, single point]
O=C(CSc1ccc(Cl)cc1)Nc1ccc(C2SCCS2)cc1 12.6 µM [inhibitor, partial curve, poor fit]
CCN(CC)c1ccc(/C=N/NC(=O)c2cccc(S(=O)(=O)N3CCOCC3)c2)cc1 17.8 µM [activator, partial curve]
Cc1ccc(NS(=O)(=O)c2ccc(NC(=O)C(C)Sc3ccc(Cl)cc3)cc2)c(C)c1 (configuration not stated) 2 µM [inhibitor, full curve]
COc1cc2c(cc1NC(=O)C(C)Oc1ccc(Cl)cc1Cl)oc1ccccc12 (configuration not stated) 2.82 µM [inhibitor, partial curve]
COc1ccc(NC(=O)c2oc3ccc4c(c3c2C)C(=O)CC(C)(C)O4)cc1OC 20 µM [activator, single point]
COc1ccc(-c2cc(C(=O)Nc3cc(OC)cc(C(=O)Nc4cccc(C(F)(F)F)c4)c3)[nH]n2)cc1 15.8 µM [inhibitor, partial curve, poor fit]
CCCCNc1c(N2CCN(C(=O)OCC)CC2)c(=O)c1=O 0.178 µM [inhibitor, full curve, poor fit]
CC1(C)CNc2cc(N)ccc2S1 39.8 µM [inhibitor, single point]
COc1ccc(NC(=O)Nc2nc(C)cc(C)n2)c(OC)c1 5.01 µM [inhibitor, single point]
O=C(Nc1ccccc1)c1ccc(NCCc2ccccc2)c([N+](=O)[O-])c1 10 µM [inhibitor, partial curve]
CSc1oc(-c2ccc(F)cc2)nc1S(=O)(=O)c1ccc(Br)cc1 20 µM [inhibitor, partial curve]
Cc1nn(-c2ccccc2)c(C)c1/C=N/NC(=O)c1cc(-c2cccc3ccccc23)n[nH]1 5.62 µM [inhibitor, partial curve]
CC(C)N1CCC(N2CCN(CCCc3ccccc3)CC2CCO)CC1 (configuration not stated) 20 µM [inhibitor, single point]
O=C(COC(=O)c1cc2ccccc2cc1O)NC(=O)NCc1ccco1 28.2 µM [inhibitor, single point]
O=C(NC(=S)Nc1ccc(S(=O)(=O)N2CCCCC2)cc1)c1cccs1 25.1 µM [inhibitor, single point]
CCN(CCCNC(=O)c1ccc(Sc2ccc(Cl)cc2)c(NC(C)=O)c1)c1cccc(C)c1 7.08 µM [activator, full curve, poor fit]
CN1c2ccccc2-c2nc(SCC(=O)Nc3ccccc3)ncc2S1(=O)=O 22.4 µM [inhibitor, partial curve]

Potency, active:
O=c1cc(-c2ccccc2)oc2cc(O)c(O)c(O)c12 28.2 µM
